Laboratory results reported in US6448281B1 (Boehringer Ingelheim (Canada) Ltd., priority 2000, dated 2002).

Biological target: hepatitis C virus RNA dependent polymerase (NS5B) (Hepacivirus hominis (Hepatitis C virus), UniProt P26663)
Assay: Inhibition of NS5B RNA dependent RNA polymerase activity (SPA, UMP-[5,6 3H] incorporation)
[1] = IC50 μM, first compound table (printed title TABLE 10; Table 1)

`[N-]=[N+]=Nc1cc(C[C@H](NC(=O)c2ccc3c(c2)nc(-c2ccoc2)n3C2CCCCC2)C(=O)O)ccc1OCC(=O)O` [Entry 16063, (S)-3-(3-Azido-4-carboxymethoxy-phenyl)-2-{[1-(1-cyclohexyl-2-furan-3-yl-1H-benzimidazol-5-yl)-methanoyl]-amino}-propionic Acid] was tested, and the IC50 (IC50, Table 16) was under 1 µM.

For `O=C(N[C@@H](Cc1c[nH]c2ccc(O)cc12)C(=O)O)c1cnc2c(c1)nc(-c1ccccn1)n2C1CCCCC1` [Entry 4001], the IC50 (IC50 μM, Table 4) was under 1 µM.

`O=C(O)c1ccc2c(c1)nc(-c1cc(Br)cs1)n2C1CCCCC1` [Entry 7027] gave an IC50 (IC50 μM, Table 7) of 5 to 10 µM.

Compound `Cc1cscc1-c1nc2cc(C(=O)O)ccc2n1C1CCCCC1` [Entry 7022] has an IC50 (IC50 μM, Table 7) of 5 to 10 µM.

`O=C(O)c1ccc(C[C@H](NC(=O)c2ccc3c(c2)nc(-c2ccoc2)n3C2CCCCC2)C(=O)O)cc1` [Entry 16012] showed an IC50 (IC50, Table 16) of under 1 µM.

In the case of `O=C(NC(Cc1ccc(O)cc1)c1ccccc1)c1ccc2c(c1)nc(-c1ccoc1)n2C1CCCCC1` (racemic) [Entry 1259, 1-Cyclohexyl-2-furan-3-yl-1H-benzimidazole-5-carboxylic Acid [2-(4-hydroxy-phenyl)-1-phenyl-ethyl]-amide], the IC50 [1] is reported as 5 to 10 µM.

For `CC(C)(CC(=O)O)C(=O)N[C@H]1CC[C@H](NC(=O)c2ccc3c(c2)nc(-c2ccoc2)n3C2CCCCC2)CC1` [Entry 1227], the IC50 [1] was 10 to 25 µM.

For `CC(C)(C)Oc1ccc(C[C@H](NC(=O)c2ccc3c(c2)nc(-c2ccoc2)n3C2CCCCC2)C(=O)O)cc1` [Entry 1030], the IC50 [1] was 5 to 10 µM.

`O=C(NC(Cc1ccc(C(=O)O)c(F)c1)C(=O)O)c1ccc2c(c1)nc(-c1ccoc1)n2C1CCCCC1` (racemic) [Entry 1142, 4-(2-Carboxy-2-{[1-(1-cyclohexyl-2-furan-3-yl-1H-benzimidazol-5-yl)-methanoyl]-amino}-ethyl)-2-fluoro-benzoic Acid] was tested, and the IC50 [1] was 1 to 5 µM.

`O=C(O)[C@@H]1C[C@@H](O)CN1C(=O)c1ccc2c(c1)nc(-c1ccoc1)n2C1CCCCC1` [Entry 6001] gave an IC50 (IC50 μM, Table 6) of 10 to 25 µM.

`O=C(N[C@@H](Cc1ccc(Nc2c(O)c(=O)c2=O)cc1)C(=O)O)c1ccc2c(c1)nc(-c1ccoc1)n2C1CCCCC1` [Entry 16025] showed an IC50 (IC50, Table 16) of under 1 µM.

Work on `CCOC(=O)CCNC(=O)N1CCC(CNC(=O)c2ccc3c(c2)nc(-c2ccoc2)n3C2CCCCC2)CC1` [Entry 1212] yielded an IC50 [1] of 10 to 25 µM.

`CCOC(=O)CCNC(=O)N[C@H]1CC[C@H](NC(=O)c2ccc3c(c2)nc(-c2ccoc2)n3C2CCCCC2)CC1` [Entry 1216] showed an IC50 [1] of 10 to 25 µM.

For `O=C(NCc1ccccc1)c1ccc2c(c1)nc(-c1ccoc1)n2C1CCCCC1` [Entry 1005], the IC50 [1] was 1 to 5 µM.

Work on `O=C(O)c1ccc2c(c1)nc(-c1ccccn1)n2C1CCCCC1` [Entry 7021, 1-Cyclohexyl-2-pyridin-2-yl-1H-benzoimidazole-5-carboxylic Acid] yielded an IC50 (IC50 μM, Table 7) of 1 to 5 µM.

With `O=C(N[C@@H](Cc1c[nH]c2ccc(O)cc12)C(=O)O)c1ccc2c(c1)nc(-c1cccc(OCCO)c1)n2C1CCCCC1` [Entry 12006] the IC50 (IC50, Table 12) was under 1 µM.

`CN(C)CCCNC(=O)[C@H](Cc1c[nH]c2ccc(O)cc12)NC(=O)c1ccc2c(c1)nc(-c1ccoc1)n2C1CCCCC1` [Entry 13018, 1-Cyclohexyl-2-furan-3-yl-1H-benzimidazole-5-carboxylic Acid [(S)-1-(3-Dimethylamino-propylcarbamoyl)-2-(5-hydroxy-1H-indol-3-yl)-ethyl]-amide] was tested, and the IC50 (IC50, Table 13) was under 1 µM.

For `O=C(O)C[C@H](Cc1ccc(O)cc1)NC(=O)c1ccc2c(c1)nc(-c1ccoc1)n2C1CCCCC1` [Entry 1230, (S)-3-{[1-(1-Cyclohexyl-2-furan-3-yl-1H-benzimidazol-5-yl)-methanoyl]-amino}-4-(4-hydroxy-phenyl)-butyric Acid], the IC50 [1] was 1 to 5 µM.

With `O=C(O)COc1ccc(CC(NC(=O)c2ccc3c(c2)nc(-c2ccoc2)n3C2CCCCC2)C(F)(F)F)cc1` (racemic) [Entry 1123, [4-(2-{[1-(1-Cyclohexyl-2-furan-3-yl-1H-benzimidazol-5-yl)-methanoyl]-amino}-3,3,3-trifluoro-propyl)-phenoxy]-acetic Acid] the IC50 [1] was 1 to 5 µM.

In the case of `O=C(O)CCCCOc1ccc(C[C@H](NC(=O)c2ccc3c(c2)nc(-c2ccoc2)n3C2CCCCC2)C(=O)O)cc1` [Entry 16042], the IC50 (IC50, Table 16) is reported as under 1 µM.

`O=C(N[C@H](C(=O)O)c1ccccc1)c1ccc2c(c1)nc(-c1ccccn1)n2C1CCCCC1` [Entry 2076] showed an IC50 (IC50 μM, Table 2) of 5 to 10 µM.

With `C[C@H](NC(=O)c1ccc2c(c1)nc(-c1ccccn1)n2C1CCCCC1)C(=O)O` [Entry 2024] the IC50 (IC50 μM, Table 2) was 10 to 25 µM.

`CC[C@H](C)[C@H](NC(=O)c1ccc2c(c1)nc(-c1ccccn1)n2C1CCCCC1)C(=O)O` [Entry 2017] was tested, and the IC50 (IC50 μM, Table 2) was 10 to 25 µM.

`O=C(N[C@@H](Cc1c[nH]c2ccc(O)cc12)C(=O)O)c1ccc2c(c1)nc(-c1ccoc1)n2C1CCC1` [Entry 22020] was tested, and the IC50 (IC50 μM, Table 22) was under 1 µM.

`CC(C)(CC(=O)O)C(=O)NC1CCCC(NC(=O)c2ccc3c(c2)nc(-c2ccoc2)n3C2CCCCC2)C1` (stereo not shown) [Entry 1226] was tested, and the IC50 [1] was 5 to 10 µM.

With `O=C(O)COc1ccc2[nH]cc(C[C@H](NC(=O)c3ccc4c(c3)nc(-c3ccccn3)n4C3CCCCC3)C(=O)O)c2c1` [Entry 12003] the IC50 (IC50, Table 12) was under 1 µM.

In the case of `CC(NC(=O)c1ccc2c(c1)nc(-c1ccoc1)n2C1CCCCC1)C(=O)O` (stereo not shown) [Entry 1178], the IC50 [1] is reported as 1 to 5 µM.

With `O=C(Nc1cccc(C(=O)O)c1)N[C@H]1CC[C@H](NC(=O)c2ccc3c(c2)nc(-c2ccoc2)n3C2CCCCC2)CC1` [Entry 1207] the IC50 [1] was 5 to 10 µM.

With `CS(=O)(=O)Nc1ccc(C[C@H](NC(=O)c2ccc3c(c2)nc(-c2ccoc2)n3C2CCCCC2)C(=O)O)cc1` [Entry 16032] the IC50 (IC50, Table 16) was under 1 µM.

`COc1ccc(CNC(=O)c2ccc3c(c2)nc(-c2cccc(C)n2)n3C2CCCCC2)cc1OC` [Entry 2015] gave an IC50 (IC50 μM, Table 2) of 10 to 25 µM.

For `O=C(Cc1ccc2c(c1)nc(-c1ccccn1)n2C1CCCCC1)N[C@@H](Cc1ccc(O)cc1)C(=O)O` [Entry 9001], the IC50 (IC50 μM, Table 9) was 10 to 25 µM.

Work on `O=C(O)C(=O)Nc1ccc(C[C@H](NC(=O)c2ccc3c(c2)nc(-c2ccoc2)n3C2CCCCC2)C(=O)O)cc1` [Entry 16009, (S)-3{4-[(1-Carboxymethanoyl)amino]phenyl}-2-{[1-(1-cyclohexyl-2-furan-3-yl-1H-benzoimidazol-5-yl)-methanoyl]-amino}-propionic Acid] yielded an IC50 (IC50, Table 16) of under 1 µM.

`COC(=O)[C@H](CCc1ccc(O)cc1)NC(=O)c1ccc2c(c1)nc(-c1ccoc1)n2C1CCCCC1` [Entry 1031] gave an IC50 [1] of 1 to 5 µM.

For `NC(=O)[C@H](Cc1c[nH]c2ccc(NC(=O)C(=O)O)cc12)NC(=O)c1ccc2c(c1)nc(-c1ccoc1)n2C1CCCCC1` [Entry 13008, N-[3-((S)-2-Carbamoyl-2-{[1-(1-cyclohexyl-2-furan-3-yl-1H-benzimidazol-5-yl)-methanoyl]-amino}-ethyl)-1H-indol-5-yl]-oxalamic Acid], the IC50 (IC50, Table 13) was under 1 µM.

Work on `O=C(N[C@@H](Cc1ccc(O)cc1)C(=O)NCc1cccnc1)c1ccc2c(c1)nc(-c1ccoc1)n2C1CCCCC1` [Entry 16047] yielded an IC50 (IC50, Table 16) of under 1 µM.

In the case of `CC(CC(=O)Nc1ccc(CC(=O)O)cc1)NC(=O)c1ccc2c(c1)nc(-c1ccoc1)n2C1CCCCC1` (stereo not shown) [Entry 1163], the IC50 [1] is reported as 5 to 10 µM.

`CC(C)c1ccc(C(NC(=O)c2ccc3c(c2)nc(-c2ccoc2)n3C2CCCCC2)C(=O)O)cc1` (stereo not shown) [Entry 1001] was tested, and the IC50 [1] was 10 to 25 µM.

Compound `COc1ccc(CCNC(=O)c2ccc3c(c2)nc(-c2ccccc2F)n3C2CCCCC2)cc1OC` [Entry 2005] has an IC50 (IC50 μM, Table 2) of 10 to 25 µM.

In the case of `CNc1nc([C@H](Cc2ccc(OCC(=O)O)cc2)NC(=O)c2ccc3c(c2)nc(-c2ccoc2)n3C2CCCCC2)cs1` [Entry 1140, {4-[(S)-2-{[1-(1-Cyclohexyl-2-furan-3-yl-1H-benzimidazol-5-yl)-methanoyl]-amino}-2-(2-methylamino-thiazol-4-yl)-ethyl]-phenoxy}-acetic Acid], the IC50 [1] is reported as 1 to 5 µM.

Work on `COC(=O)[C@H](Cc1ccc(NC#N)cc1)NC(=O)c1ccc2c(c1)nc(-c1ccoc1)n2C1CCCCC1` [Entry 16027] yielded an IC50 (IC50, Table 16) of under 1 µM.

`CC(C)n1c(-c2ccoc2)nc2cc(C(=O)N[C@@H](Cc3c[nH]c4ccc(O)cc34)C(N)=O)ccc21` [Entry 3040] was tested, and the IC50 (IC50 μM, Table 3) was 1 to 5 µM.

`COc1ccc(C(NC(=O)c2ccc3c(c2)nc(-c2ccccn2)n3C2CCCCC2)C(=O)O)cc1OC` (stereo not shown) [Entry 2049] showed an IC50 (IC50 μM, Table 2) of 1 to 5 µM.

Compound `CN(C)c1nc([C@H](Cc2ccc(OCC(=O)O)cc2)NC(=O)c2ccc3c(c2)nc(-c2ccoc2)n3C2CCCCC2)cs1` [Entry 1141, {4-[(S)-2-{[1-(1-Cyclohexyl-2-furan-3-yl-1H-benzimidazol-5-yl)-methanoyl]-amino}-2-(2-dimethylamino-thiazol-4-yl)-ethyl]-phenoxy}-acetic Acid] has an IC50 [1] of 1 to 5 µM.

In the case of `N#C[C@H](Cc1ccc(O)cc1)NC(=O)c1ccc2c(c1)nc(-c1ccoc1)n2C1CCCCC1` [Entry 1170, 1-Cyclohexyl-2-furan-3-yl-1H-benzimidazole-5-carboxylic Acid [(S)-1-Cyano-2-(4-hydroxy-phenyl)-ethyl]-amide], the IC50 [1] is reported as 10 to 25 µM.

`Cn1nnnc1-c1ccc(C[C@H](NC(=O)c2ccc3c(c2)nc(-c2ccoc2)n3C2CCCCC2)C(=O)O)cc1` [Entry 16037] was tested, and the IC50 (IC50, Table 16) was under 1 µM.

`O=C(O)c1cccc(CN[C@H]2CC[C@H](NC(=O)c3ccc4c(c3)nc(-c3ccoc3)n4C3CCCCC3)CC2)c1` [Entry 1290] showed an IC50 [1] of 1 to 5 µM.

Work on `NC1CCC(NC(=O)c2ccc3c(c2)nc(-c2ccoc2)n3C2CCCCC2)CC1` (stereo not shown) [Entry 1183] yielded an IC50 [1] of 1 to 5 µM.

Work on `CNC(=O)C(=O)Nc1ccc2[nH]cc(C[C@H](NC(=O)c3ccc4c(c3)nc(-c3ccoc3)n4C3CCCCC3)C(N)=O)c2c1` [Entry 13010, N^1-[3-((S)-2-Carbamoyl-2-{[1-(1-cyclohexyl-2-furan-3-yl-1H-benzimidazol-5-yl)-methanoyl]-amino}-ethyl)-1H-indol-5-yl]-N^2-methyl-oxalamide] yielded an IC50 (IC50, Table 13) of under 1 µM.

Compound `COC(=O)[C@H](Cc1cn(C)c2ccc(OC(C)(C)C(=O)O)cc12)NC(=O)c1ccc2c(c1)nc(-c1ccoc1)n2C1CCCCC1` [Entry 11029, (S)-3-[5-(1-Carboxy-1-methyl-ethoxy)-1-methyl-1H-indol-3-yl]-2-{[1-(1-cyclohexyl-2-furan-3-yl-1H-benzimidazol-5-yl)-methanoyl]-amino}-propionic Acid Methyl Ester] has an IC50 (IC50, Table 11) of under 1 µM.
